Laboratory results reported in patent US11071788B2, “Antibody drug conjugates of kinesin spindel protein (KSP) inhibitors with antiB7H3-antibodies” (BAYER PHARMA AKTIENGESELLSCHAFT, priority 2015, dated 2021).

T1: human B7H2 (Homo sapiens (Human), UniProt O75144)
T1 sequence (O75144 whole entry, looked up): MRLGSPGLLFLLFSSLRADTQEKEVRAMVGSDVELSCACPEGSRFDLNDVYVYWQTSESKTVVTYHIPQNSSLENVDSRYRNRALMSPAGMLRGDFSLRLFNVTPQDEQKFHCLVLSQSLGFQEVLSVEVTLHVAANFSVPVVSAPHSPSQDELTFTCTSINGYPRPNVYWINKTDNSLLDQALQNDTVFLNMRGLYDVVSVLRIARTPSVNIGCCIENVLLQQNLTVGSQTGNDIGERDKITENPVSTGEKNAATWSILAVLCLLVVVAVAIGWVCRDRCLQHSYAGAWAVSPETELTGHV

T2: human B7H3 (Homo sapiens (Human), UniProt Q5ZPR3)
T2 sequence (Q5ZPR3 whole entry, looked up): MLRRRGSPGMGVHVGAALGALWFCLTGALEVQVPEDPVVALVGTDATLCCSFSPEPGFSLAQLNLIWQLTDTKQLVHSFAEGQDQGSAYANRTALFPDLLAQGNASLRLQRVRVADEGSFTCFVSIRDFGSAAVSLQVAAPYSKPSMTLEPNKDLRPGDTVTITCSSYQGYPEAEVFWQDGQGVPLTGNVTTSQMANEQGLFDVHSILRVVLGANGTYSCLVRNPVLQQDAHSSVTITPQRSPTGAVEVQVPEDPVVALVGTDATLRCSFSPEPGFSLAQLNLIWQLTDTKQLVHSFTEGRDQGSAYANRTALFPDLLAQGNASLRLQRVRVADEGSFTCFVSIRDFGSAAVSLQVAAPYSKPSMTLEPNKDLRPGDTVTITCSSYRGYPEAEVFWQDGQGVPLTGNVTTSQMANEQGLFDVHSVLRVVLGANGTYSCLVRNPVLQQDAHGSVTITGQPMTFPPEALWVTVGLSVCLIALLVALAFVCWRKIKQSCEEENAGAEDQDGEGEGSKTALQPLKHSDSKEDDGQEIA

T3: human B7H4 (Homo sapiens (Human), UniProt Q7Z7D3)
T3 sequence (Q7Z7D3 whole entry, looked up): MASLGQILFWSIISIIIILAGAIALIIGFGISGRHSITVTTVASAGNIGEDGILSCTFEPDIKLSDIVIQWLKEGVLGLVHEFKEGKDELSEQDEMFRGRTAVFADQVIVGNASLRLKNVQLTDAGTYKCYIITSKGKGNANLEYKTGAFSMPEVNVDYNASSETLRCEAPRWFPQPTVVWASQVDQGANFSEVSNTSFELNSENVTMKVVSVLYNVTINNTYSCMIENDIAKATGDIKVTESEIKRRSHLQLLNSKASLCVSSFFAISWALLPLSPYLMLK

B1: TPP6501 (antibody)
heavy: EVQLLESGGGLVQPGGSLRLSCAASGFTFSSYGMHWVRQAPGKGLEWVSAISGSGGSTYYADSVKGRFTISRDNSKNTLYLQMNSLRAEDTAVYYCARGSNYLGMDVWGQGTLVTVSS[left out - human IgG1 constant region]
light: QSVLTQPPSASGTPGQRVTISCSGSSSNIGRNIVNWYQQLPGTAPKLLIYRSNQRPSGVPDRFSGSKSGTSASLAISGLRSEDEADYYCQTWGTGWVFGGGTKLTVLGQPKAAPSVTLFPPSSEELQANKATLVCLISDFYPGAVTVAWKADSSPVKAGVETTTPSKQSNNKYAASSYLSLTPEQWKSHRSYSCQVTHEGSTVEKTVAPTECS
modifications: TPP-6501 Heavy Chain (IgG); TPP-6501 Light Chain (IgG)
B2: 208-6501: ADC of Example 208 (Intermediate F104) with anti-B7H3 antibody 6501 (conjugate)
heavy: B1 heavy
light: B1 light

Assays:
human B7H2 = target: T1, human B7H2; assay: ELISA binding of anti-B7H3 antibodies to human B7H2
Description: (§1) TPP6497, TPP6499, TPP6501, TPP6502 and TPP6515 were synthesized as described above. Binding of the antibodies to human B7H3 and to human B7H2 and B7H4 was characterized using ELISAs. Black 384-well Maxisorp plates (Nunc) were coated with anti-human IgG Fc (Sigma, 12316; 1:440 dilution) in single coating buffer (Candor) for one hour at 37° C. After washing once with PSB, 0.05% Tween, the plate was blocked with 100% Smart Block (Candor) for one hour at 37° C. The antibody to be tested was then attached to the plate (2 μg/ml IgG in PBS, 0.05% Tween, 10% Smart Block; 1 hour, room temperature). After washing three times, the plate was incubated with the antigen in question or with buffer alone (37 ng/ml in PBS, 0.05% Tween, 10% Smart block; B7H2: RnDSystems, 8206-B7; B7H3: RnDSystems, 2318-B3-050/CF; B7H4. RnDSystems, 6576-B7; 1 hour, room temperature). After washing three times, the plate was incubated with an anti-His HRP antibody (Novagen, 71840-3; 1:10000 dilution; 1 hour, room temperature). After washing three times, the plate was incubated with Amplex Red for 30 minutes and then read.

human B7H3 = target: T2, human B7H3; assay: ELISA binding of anti-B7H3 antibodies to human B7H3
Description: as §1

human B7H4 = target: T3, human B7H4; assay: ELISA binding of anti-B7H3 antibodies to human B7H4
Description: as §1

[1] = test system: Raji: human Burkitt's lymphoma cells, B7H3-negative; assay: CTG cytotoxicity assay of anti-B7H3 ADCs, Raji; type: cell-based; details: 72 h incubation
Description: The analysis of the cytotoxic effects of the anti-B7H3 ADCs was carried out with various cell lines:
Raji: human Burkitt's lymphoma cells, DMSZ-ACC-319, standard medium: RPMI 1640; (Biochrom; # FG 1215, with stable glutamine)+10% FCS (Biochrom; # S0415), B7H3-negative.
The cells were cultivated by the standard method as stated by the American Tissue Culture Collection (ATCC) for the cell lines in question.
The cells were cultivated according to the standard method using the growth media listed under C-1. […] In a parallel plate, the cell vitality was determined at the start of the drug treatment (day 0) using the Cell Titer Glow (CTG) Luminescent Cell Viability Assay (Promega #G7573 and #G7571). To this end, 100 μl of the […] were added per cell batch, the plates were then covered with aluminium foil, shaken on the plate shaker at 180 rpm for 2 minutes, allowed to stand on the laboratory bench for 8 minutes and then measured using a luminometer (Victor X2, Perkin Elmer). The substrate detects the ATP content in the living cells, generating a luminescence signal of which the height is directly proportional to the vitality of the cells. […] From the measured data, the IC^50 of the growth inhibition in comparison to day 0 was calculated using the DRC (dose response curve) analysis spreadsheet with a 4-parameter fit. […]

Molecule | Binding to B7H2 (ELISA, in words) (human B7H2) | Binding to B7H3 (ELISA, in words) (human B7H3) | Binding to B7H4 (ELISA, in words) (human B7H4) | IC50 [1] [nM]
B1 | not B7H2 or B7H4 | bind B7H3 | not B7H2 or B7H4 | –
B2 | – | – | – | 126
